In patent US12286455B2, “Anthelmintic depsipeptide compounds” (BOEHRINGER INGELHEIM ANIMAL HEALTH USA INC., priority 2015, dated 2025):
Some entries share one result that the patent states for a list of compounds. For at least one compound, name, drawing or mass did not settle the structure.

tested on: Microfilaria of Dirofilaria immitis; test: Method B: survival of microfilaria of Dirofilaria immitis in microtitre plate; settings: survival of microfilaria at 72 hours; read-out: median EC50

| SMILES | EC50 |
| --- | --- |
| CC(C)C[C@H]1C(=O)O[C@H](Cc2ccc(C3CCOCC3)cc2)C(=O)N(C)[C@@H](CC(C)C)C(=O)O[C@H](C)C(=O)N(C)[C@@H](CC(C)(C)F)C(=O)O[C@H](Cc2ccc(C3CCOCC3)cc2)C(=O)N(C)[C@@H](CC(C)(C)F)C(=O)O[C@H](C)C(=O)N1C [Compound 7-31] | < 100 nM |
| CC(C)C[C@H]1C(=O)O[C@H](Cc2ccccc2)C(=O)N(C)[C@@H](CC(C)(C)C)C(=O)O[C@H](C)C(=O)N(C)[C@@H](CC(C)(C)C)C(=O)O[C@H](Cc2ccccc2)C(=O)N(C)[C@@H](CC(C)C)C(=O)O[C@H](C)C(=O)N1C [Compound 2-8] | < 100 nM |
| CC(C)C[C@H]1C(=O)O[C@H](C)C(=O)N(C)[C@@H](CC(C)(C)F)C(=O)O[C@H](Cc2ccc(C(C)(C)C)cc2)C(=O)N(C)[C@@H](CC(C)C)C(=O)O[C@H](C)C(=O)N(C)[C@@H](CC(C)(C)F)C(=O)O[C@H](Cc2ccc(C(C)(C)C)cc2)C(=O)N1C [Compound 18-18] | < 100 nM |
| CC(C)C[C@H]1C(=O)O[C@H](Cc2ccccc2)C(=O)N(C)[C@@H](CC(C)(C)F)C(=O)O[C@H](C)C(=O)N(C)[C@@H](CC(C)(C)F)C(=O)O[C@H](Cc2ccccc2)C(=O)N(C)[C@@H](CC(C)C)C(=O)O[C@H](C)C(=O)N1C [Compound 2-20] | < 100 nM |
| CC(C)C[C@H]1C(=O)O[C@H](Cc2ccc(Br)cc2)C(=O)N(C)[C@@H](CC(C)C)C(=O)O[C@H](C)C(=O)N(C)[C@@H](CC(C)C)C(=O)O[C@H](Cc2ccc(Br)cc2)C(=O)N(C)[C@@H](CC(C)C)C(=O)O[C@H](C)C(=O)N1C [Compound 23-27] | < 100 nM |
| CC(C)C[C@H]1C(=O)O[C@H](Cc2ccc(N3CCOCC3)cc2)C(=O)N(C)[C@@H](CC(C)(C)C)C(=O)O[C@H](C)C(=O)N(C)[C@@H](CC(C)C)C(=O)O[C@H](Cc2ccccc2)C(=O)N(C)[C@@H](CC(C)(C)C)C(=O)O[C@H](C)C(=O)N1C [Compound 25-6] | < 100 nM |
| CC(C)C[C@H]1C(=O)O[C@H](Cc2ccc(C(F)(F)F)cc2)C(=O)N(C)[C@@H](CC(C)(C)F)C(=O)O[C@H](C)C(=O)N(C)[C@@H](CC(C)(C)F)C(=O)O[C@H](Cc2ccc(C(F)(F)F)cc2)C(=O)N(C)[C@@H](CC(C)C)C(=O)O[C@H](C)C(=O)N1C [Compound 4-20] | < 100 nM |
| CC(C)C[C@H]1C(=O)O[C@H](C)C(=O)N(C)[C@@H](CC(C)(C)F)C(=O)O[C@H](Cc2ccc(C(F)(F)F)nc2)C(=O)N(C)[C@@H](CC(C)C)C(=O)O[C@H](C)C(=O)N(C)[C@@H](CC(C)(C)F)C(=O)O[C@H](Cc2ccc(C(F)(F)F)nc2)C(=O)N1C [Compound 11-18] | < 100 nM |
| CC(C)C[C@H]1C(=O)O[C@H](Cc2ccc(C(F)(F)F)cc2)C(=O)N(C)[C@@H](CC(C)C)C(=O)O[C@H](C)C(=O)N(C)[C@@H](CC(C)(C)F)C(=O)O[C@H](Cc2ccc(C(F)(F)F)cc2)C(=O)N(C)[C@@H](CC(C)(C)F)C(=O)O[C@H](C)C(=O)N1C [Compound 4-31] | < 100 nM |
| CC(C)C[C@H]1C(=O)O[C@H](Cc2ccc(F)cc2)C(=O)N(C)[C@@H](CC(C)C)C(=O)O[C@H](C)C(=O)N(C)[C@@H](CC(C)(C)F)C(=O)O[C@H](Cc2ccc(F)cc2)C(=O)N(C)[C@@H](CC(C)(C)F)C(=O)O[C@H](C)C(=O)N1C [Compound 3-31] | < 100 nM |
| CC(C)C[C@H]1C(=O)O[C@H](Cc2ccc(F)cc2)C(=O)N(C)[C@@H](CC(C)(C)F)C(=O)O[C@H](C)C(=O)N(C)[C@@H](CC(C)(C)F)C(=O)O[C@H](Cc2ccc(F)cc2)C(=O)N(C)[C@@H](CC(C)C)C(=O)O[C@H](C)C(=O)N1C [Compound 3-20] | < 100 nM |
| CC(C)C[C@H]1C(=O)O[C@H](Cc2ccccc2)C(=O)N(C)[C@@H](CC(C)(C)F)C(=O)O[C@H](C)C(=O)N(C)[C@@H](CC(C)C)C(=O)O[C@H](Cc2ccccc2)C(=O)N(C)[C@@H](CC(C)C)C(=O)O[C@H](C)C(=O)N1C [Compound 2-15] | < 100 nM |
| CC(C)C[C@H]1C(=O)O[C@H](Cc2ccc(C(F)(F)F)cc2)C(=O)N(C)[C@@H](CC(C)C)C(=O)O[C@H](C)C(=O)N(C)[C@@H](CC(C)C)C(=O)O[C@H](Cc2ccc(C(F)(F)F)cc2)C(=O)N(C)[C@@H](CC(C)C)C(=O)O[C@H](C)C(=O)N1C [Compound 4-27] | < 100 nM |
| CC(C)C[C@H]1C(=O)O[C@H](Cc2ccc(C3CCOCC3)cc2)C(=O)N(C)[C@@H](CC(C)C)C(=O)OCC(=O)N(C)[C@@H](CC(C)C)C(=O)O[C@H](Cc2ccc(C3CCOCC3)cc2)C(=O)N(C)[C@@H](CC(C)C)C(=O)OCC(=O)N1C [Compound 7-40] | < 100 nM |
| CC(C)C[C@H]1C(=O)O[C@H](Cc2ccccc2)C(=O)N(C)[C@@H](CC(C)(C)C)C(=O)O[C@H](C)C(=O)N(C)[C@@H](CC(C)C)C(=O)O[C@H](Cc2ccccc2)C(=O)N(C)[C@@H](CC(C)C)C(=O)O[C@H](C)C(=O)N1C [Compound 2-3] | < 100 nM |
| CC(C)C[C@H]1C(=O)OCC(=O)N(C)[C@@H](CC(C)(C)F)C(=O)O[C@H](Cc2ccc(C3CCOCC3)cc2)C(=O)N(C)[C@@H](CC(C)C)C(=O)OCC(=O)N(C)[C@@H](CC(C)(C)F)C(=O)O[C@H](Cc2ccc(C3CCOCC3)cc2)C(=O)N1C [Compound 7-37] | < 100 nM |
| C[C@H]1OC(=O)[C@H](CC(C)(C)C)N(C)C(=O)[C@@H](Cc2ccc(C(C)(C)C)cc2)OC(=O)[C@H](CC(C)(C)F)N(C)C(=O)[C@@H](C)OC(=O)[C@H](CC(C)(C)C)N(C)C(=O)[C@@H](Cc2ccc(C(C)(C)C)cc2)OC(=O)[C@H](CC(C)(C)F)N(C)C1=O [Compound 18-32] | < 100 nM |
| CC(C)C[C@H]1C(=O)O[C@H](Cc2ccc3c(c2)CCO3)C(=O)N(C)[C@@H](CC(C)C)C(=O)O[C@H](C)C(=O)N(C)[C@@H](CC(C)C)C(=O)O[C@H](Cc2ccc3c(c2)CCO3)C(=O)N(C)[C@@H](CC(C)C)C(=O)O[C@H](C)C(=O)N1C [Compound 16-27] | < 100 nM |
| CC(C)C[C@H]1C(=O)O[C@H](Cc2ccc(Sc3nnnn3C)cc2)C(=O)N(C)[C@@H](CC(C)C)C(=O)O[C@H](C)C(=O)N(C)[C@@H](CC(C)C)C(=O)O[C@H](Cc2ccc(I)cc2)C(=O)N(C)[C@@H](CC(C)C)C(=O)O[C@H](C)C(=O)N1C [Compound 26-27] | < 100 nM |
| CCC(C)[C@H]1C(=O)O[C@H](C)C(=O)N(C)[C@@H](CC(C)(C)F)C(=O)O[C@H](Cc2ccc(C3CCOCC3)cc2)C(=O)N(C)[C@@H](C(C)CC)C(=O)O[C@H](C)C(=O)N(C)[C@@H](CC(C)(C)F)C(=O)O[C@H](Cc2ccc(C3CCOCC3)cc2)C(=O)N1C (some centres unmarked) [Compound 7-45] | < 100 nM |
| CC(C)C[C@H]1C(=O)O[C@H](Cc2ccc(Sc3nnnn3C)cc2)C(=O)N(C)[C@@H](CC(C)C)C(=O)O[C@H](C)C(=O)N(C)[C@@H](CC(C)C)C(=O)O[C@H](Cc2ccc(Sc3nnnn3C)cc2)C(=O)N(C)[C@@H](CC(C)C)C(=O)O[C@H](C)C(=O)N1C [Compound 15-27] | < 100 nM |
| CC(C)C[C@H]1C(=O)O[C@H](Cc2ccc(F)cc2)C(=O)N(C)[C@@H](CC(C)C)C(=O)O[C@H](C)C(=O)N(C)[C@@H](CC(C)C)C(=O)O[C@H](Cc2ccc(F)cc2)C(=O)N(C)[C@@H](CC(C)C)C(=O)O[C@H](C)C(=O)N1C [Compound 3-27] | < 100 nM |
| CC(C)C[C@H]1C(=O)O[C@H](Cc2ccccc2)C(=O)N(C)[C@@H](CC(C)C)C(=O)O[C@H](C)C(=O)N(C)[C@@H](CC(C)(C)F)C(=O)O[C@H](Cc2ccccc2)C(=O)N(C)[C@@H](CC(C)C)C(=O)O[C@H](C)C(=O)N1C [Compound 2-16] | < 100 nM |
